According to PubChem BioAssay AID485297 (National Center for Advancing Translational Sciences (NCATS), 2010):
In all, about 320,000 compounds went through this assay and about 9,100 (2.8%) were called active. Inconclusive means that the source gave no clear call. Such entries were picked first, then a sample of the others. The call rests on the fitted dose curve; in most records, active means well fitted activation curve with a large enough effect; inconclusive means small, poorly fitted or top-dose-only effect; inactive means no such curve, though single readings can be large or run the other way. Potencies of inconclusive entries are doubtful fits and often do not repeat.

experiment: qHTS Assay for Rab9 Promoter Activators; details: Huh7 Rab9 promoter-luciferase reporter, luminescence, 24 h; series mostly up to 9.22 µM; activation, negative = inhibition: at the top concentration; further: nearly all actives have a fitted effect of over 60% in size; on activation, negative = inhibition: % of control where 0% means no effect
How it was run: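 Huh7 cells stably carrying Rab9 promoter–luciferase reporter, plated 1500 cells/well, compound added after 2 h and incubated 24 h at 37 °C; luciferase luminescence then read after 10 min with detection reagent.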
Potency means the concentration at half of the fitted maximal effect; tags describe the fitted curve by direction and shape.

Potency, active:
Nc1c(C(=O)Nc2cccc(C(=O)O)c2)sc2nc3c(cc12)CCCC3 1.26 µM, COC(=O)c1cccc(NC(=O)c2onc3c2CCCC3)c1 0.316 µM, CC(=O)c1ccc(Nc2ccc(-c3ccccc3F)nn2)cc1 0.501 µM, O=C(N/N=C/c1ccsc1)c1ccccn1 4.47 µM, CC(C)OCCCNc1ncnc2c1cnn2-c1ccccc1 0.447 µM, CN(C)S(=O)(=O)c1ccc(NC(=O)c2ccccn2)cc1 1.58 µM, O=C(Nc1cc([N+](=O)[O-])ccc1O)c1ccc2c(c1)C(=O)N(Cc1ccco1)C2=O 3.98 µM, COc1ccc(-c2cc(C(=O)N3CCCCCC3)no2)cc1 0.447 µM

Potency, inconclusive:
O=C(O)c1cccc(CSc2ncn[nH]2)c1 3.55 µM [activator, single point], COc1ccc(-n2c(C)cc(/C=C3\SC(=O)NC3=O)c2C)cc1 1.78 µM [activator, partial curve], CCc1ccccc1NC(=O)c1ccc(-c2csc(C)n2)cc1 4.47 µM [activator, single point], CC(=O)Nc1cc(-c2nc3ccccc3o2)ccc1Cl 6.31 µM [activator, single point], N#Cc1cc2c(nc1SCc1ccncc1)CCC2 3.55 µM [activator, single point], Fc1ccc2nc(Nc3nc4c(F)cccc4s3)sc2c1 5.62 µM [activator, single point], COc1ccc2c(c1)C(=O)/C(=C/C=C/c1ccccc1)CC2 3.55 µM [activator, partial curve], CNc1oc(-c2ccc(Cl)cc2)nc1C#N 3.55 µM [activator, partial curve], CCCc1cc(C(=O)N/N=C/c2cccn2C)cs1 6.31 µM [activator, single point], COc1cccc(/C=N/NC(=O)c2cccc(N3CCCC3=O)c2)c1 3.55 µM [activator, single point], COc1ccc(NC(=O)c2cccs2)cn1 1.41 µM [activator, partial curve], CCCc1ccc(-c2cc(C(=O)NN3CCOCC3)c3ccccc3n2)cc1 2.24 µM [activator, partial curve], Cc1cc(C(=O)C(C)OC(=O)c2cnccn2)c(C)n1-c1ccccc1 (stereo unspecified) 4.47 µM [activator, partial curve], COc1ccc(/C=C/C(=O)Nc2ccccc2C(=O)N2CCCC2)cc1 3.55 µM [activator, partial curve], C/C(=N\OCc1ccccc1C#N)c1cc2ccccc2o1 6.31 µM [activator, partial curve], N/C(=N\OC(=O)c1cc(Cl)ccc1Cl)c1cccnc1 5.62 µM [activator, single point], Clc1ccc(OCCn2cnc3ccccc32)c(Cl)c1 3.55 µM [activator, single point], O=[N+]([O-])c1nn(-c2ccc3c(c2)OCCO3)n(O)c1=NC1CCCCCC1 5.62 µM [activator, single point], O=C(c1cc2ccccc2o1)c1nc2c(n1O)CCCCC2 3.98 µM [activator, partial curve], Cc1cc2nc3c(nc2cc1C)CCCC3 3.55 µM [activator, single point], COc1ccc(C(=O)OCc2csc(C)n2)c(O)c1 3.55 µM [activator, single point], Cc1c(C(=O)N2CCC(C(N)=O)CC2)oc2ccc(Br)cc12 1.58 µM [activator, partial curve], Nc1ccc(SCC(=O)Nc2cccc([N+](=O)[O-])c2)cc1 3.98 µM [activator, single point], Cc1c(C(=O)N2CCCCC2)oc2ccc(Br)cc12 3.98 µM [activator, partial curve], COc1cc([N+](=O)[O-])ccc1N=Nc1c(N)[nH]n(-c2ccccc2)c1=O 3.55 µM [activator, partial curve], Oc1[nH]c2ccccc2c1N=Nc1cccc(Cl)c1 5.62 µM [activator, single point], COc1cccc(Nc2ncnc3sccc23)c1 5.01 µM [activator, single point], O=C1C2C3C=CC(CC3)C2C(=O)N1/N=C/c1c[nH]c2ccccc12 (stereo unspecified) 2.82 µM [activator, partial curve], Cc1ccccc1Nc1nc(N)nc(COC(=O)c2cccn2C)n1 1 µM [activator, single point], COc1ccc(C(=O)N=C2SC3CS(=O)(=O)CC3N2c2ccccc2)cc1OC (stereo unspecified) 1.12 µM [activator, single point], O=C(N/N=C\c1cccnc1)c1ccccc1O 3.55 µM [activator, partial curve, poor fit], Cc1cc(/C=N/NC(=O)c2ccsc2)c(C)n1-c1cnccn1 3.98 µM [activator, single point], COC(=O)c1cccc(NC(=O)c2ccc(OC)c(Cl)c2)c1 5.62 µM [activator, single point], CSc1nc(-c2ccc(Cl)cc2)nn1C(=O)c1ccccc1 2.82 µM [activator, partial curve], O=C(COc1ccc(Cl)cc1)Nc1ccc(Cl)cn1 6.31 µM [activator, single point], Nc1c(C(=O)NCc2ccco2)nnn1-c1ccccc1 3.55 µM [activator, partial curve], Cn1nccc1NS(=O)(=O)c1ccc(F)cc1 0.0013 µM [activator], O=C(CNC(=O)c1ccc(Cl)cc1)c1ccc(Cl)cc1 5.62 µM [activator, single point], CCN1C(=O)N/C(=C/c2cc(C)n(Cc3ccccc3)c2C)C1=O 4.47 µM [activator, single point], CC(C)c1nc(SCC(=O)Nc2nc3c(s2)CCCC3)c2ccccc2n1 5.62 µM [activator, single point], N#Cc1cnc2sc3ccccc3n2c1=N 3.55 µM [activator, single point], c1ccc(Cc2cc(-c3ccccc3)on2)cc1 3.16 µM [activator, single point], Cc1nn(Cc2c(F)c(F)c(F)c(F)c2F)c(C)c1NC(=O)c1ccc(COc2cc(Cl)ccc2Cl)cc1 3.98 µM [activator, partial curve], O=C(Nc1ccccc1Cl)c1ccc(COc2ccc3c(c2)CCC3)cc1 3.55 µM [activator, partial curve], CCc1nnc(NC(=O)c2ccc(Cl)nc2)s1 3.55 µM [activator, partial curve], COC(=O)/C(=C1\Oc2ccc(C(C)(C)C)cc2S1)C(F)(F)F 3.16 µM [activator, partial curve]

Potency, inactive:
CC[C@H](C)C(=O)O[C@H]1C[C@@H](C)C=C2C=C[C@H](C)[C@H](CC[C@@H]3C[C@@H](O)CC(=O)O3)[C@H]21

activation, negative = inhibition, inactive:
CCN(CC(=O)Nc1c(F)cccc1F)C(=O)CNC(=O)c1ccc(Br)o1 -1.11%, COc1ccccc1C(=O)NC(CCSC)C(=O)NNC(=O)C(C)Oc1ccccc1F (stereo unspecified) 2.95%, Cc1cc(OC(=O)c2ccccc2Br)c([N+](=O)[O-])c(=O)[nH]1 1.25%, O=C(NCc1cccnc1)c1cccc(OC2CCN(Cc3ccc(CO)o3)CC2)c1 9.05%, Cc1ccc(S(=O)(=O)N(C)C)cc1NC(=O)c1ccc2ccccc2n1 16.7%, CC1CCN(C(c2cccs2)c2nnnn2Cc2ccccc2)CC1 (stereo unspecified) 0.468%, CCN(CC)c1ccc(C=C2C(=O)OC3(CCCCC3)OC2=O)cc1 9.84%, COC(=O)c1sc(-c2ccccc2)cc1NC(=O)C1CC1 3.14%, Cc1ccc(/C=C2/SC(=S)N(c3ccc(S(=O)(=O)Nc4nccs4)cc3)C2=O)cc1 -0.986%, CCc1nccn1-c1cc(C(C)(C)C)nc2c(-c3ccc(Cl)cc3)cnn12 8.5%, Brc1ccc(-c2csc(N3CCCCCC3)n2)cc1 -15.4%, CSc1ccccc1NC(=O)COc1ccc(Cl)cc1Cl -0.878%, CCC(C(=O)OCC(=O)N1CCN(c2ccc(OC)cc2)CC1)c1ccccc1 (stereo unspecified) -5.04%, CCc1ccc(C(=O)Nc2cc(C)ccc2F)s1 23.4%, O=C(O)CCCn1c(O)c(C=C2N=c3ccccc3=N2)sc1=S -5.13%, Cc1ccc(C2C3C(=O)N(c4ccccc4)C(=O)C3N3CCCN23)cc1 (stereo unspecified) 2.78%, COC(=O)c1sc2cc([N+](=O)[O-])cc(SCC(C)C)c2c1N -10.9%, COc1cc(NS(=O)(=O)c2ccc(NC(=O)c3cccnc3)cc2)ncn1 3.23%, Fc1ccc(N2N=C(c3cccs3)CC2c2ccccc2)cc1 (stereo unspecified) -0.139%, COc1ccccc1/C=N/Nc1cc(C)nc2ccc(C)cc12 11.3%, Cc1cc(C(=O)COC(=O)CNC(=O)c2ccccc2)c(C)n1CC1CCCO1 (stereo unspecified) -12.2%
